Among all 280,000 compounds or so, about 540 (0.19%) were called active. Inconclusive means that the source gave no clear call. Such entries were picked first, then a sample of the others. The call rests on the fitted dose curve; in most records, active means well fitted activation curve with a large enough effect; inconclusive means small, poorly fitted or top-dose-only effect; inactive means flat fitted curve, though single readings scatter. A potency beside an inconclusive call is a rough fit, not a confirmed value.
Assay: Quantitative High-Throughput Screen for Regulators of Epigenetic Control; further: nearly all actives have a fitted effect of over 60% in size
Details: murine LDR cells, GFP reporter derepression, 30 h; series mostly up to 53.9 µM
Method in brief: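 Murine LDR cells carrying a silenced, genomically integrated CMV-driven GFP reporter were exposed to compound for 30 hours at 37 C. After PBS washes, GFP-positive cells (20–120 um objects) were counted by laser-scanning microplate cytometry.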
Potency means the concentration at half of the fitted maximal effect; tags describe the fitted curve by direction and shape.

SMILES | Potency
O=C(Nc1ncc(S(=O)(=O)c2ccc([N+](=O)[O-])cc2)s1)c1cccnc1 | inactive
COc1ccc(NCc2ccc([N+](=O)[O-])s2)cc1 | inconclusive: 31.6 µM [activator, single point]
COc1cccc(Nc2nc(CC(C)=O)ns2)c1 | inconclusive: 35.5 µM [activator, single point]
CCCCOc1cccc(C2c3c(-c4cc(C)ccc4O)n[nH]c3C(=O)N2CCOC)c1 (stereo not given) | inconclusive: 28.2 µM [activator, single point]
O=C(NCCCn1ccnc1)c1cc(-c2ccncc2)nc2ccccc12 | inactive
CCc1ccccc1NC(=O)Cn1c(=O)n(C(C)C)c(=O)c2oc3ccccc3c21 | inconclusive: 12.6 µM [activator, single point]
S=C(Nc1ccccc1)Nc1nc2ccccc2n1CCOc1ccccc1 | inconclusive: 35.5 µM [activator, single point]
COc1ccc(C(=O)/C=C/Nc2ccc([N+](=O)[O-])cc2C)c(OC)c1 | inconclusive: 31.6 µM [activator, single point]
Cc1cc(/C=C/c2ccc3cc(N(C)C)ccc3[n+]2C)c(C)n1-c1ccccc1 | active: 22.4 µM
CCOC(=O)COn1c(=O)c(C)[n+]([O-])c2ccccc21 | inconclusive: 17.8 µM [activator, single point]
CC(=O)Nc1cccc(-c2nnc(SCC(=O)c3cc([N+](=O)[O-])ccc3Cl)o2)c1 | inconclusive: 11.2 µM [activator, partial curve]
O=C(/C=C/c1cccc2ccccc12)c1ccncc1 | inconclusive: 31.6 µM [activator, single point]
COc1cccc(-c2nc(CS(=O)CC(=O)NCc3ccccc3Cl)c(C)o2)c1 (stereo not given) | inactive
Cc1ccc(NN2C(=O)C=C(c3ccc(Cl)cc3)C2=O)cc1 | inactive
Cc1ccccc1Nc1nnc(-c2ccc(C)c(S(=O)(=O)N3CCOCC3)c2)c2ccccc12 | inactive
COc1cccc(C(=O)Nc2c(C(=O)NC(C)(C)C)oc3ccccc23)c1 | inactive
O=C(/C=C/c1ccco1)NCC(=O)N/N=C/c1ccc(Cl)cc1 | inactive
O=C(NCC(c1ccccc1)c1ccccc1)c1nn(-c2ccccc2Cl)nc1CO | inactive
COc1ccc(NC(=O)c2ccsc2NC(C)=O)cc1 | inconclusive: 6.31 µM [activator, single point]
CNc1ccc(Br)cc(C(=O)/C=C/c2cc(OC)ccc2OC)c1=O | inconclusive: 22.4 µM [activator, single point]
